From PubChem BioAssay AID1948 (National Center for Advancing Translational Sciences (NCATS), 2009)
Screen size: about 110,000 compounds; about 20 (0.02%) were called active. This list was built around the results that the source calls inconclusive (neither active nor inactive); the mix of calls is not that of the screen. The call rests on the fitted dose curve; in most records, active means well fitted activation curve with a large enough effect; inconclusive means small, poorly fitted or top-dose-only effect; inactive means no such curve, though single readings can be large or run the other way. Potencies of inconclusive entries are left out as doubtful fits.

assay: qHTS Assay for Compounds that Induce Erasure of Genomic Imprints; settings: mouse ES Peg3-LacZ reporter, beta-gal luminescence, 40 h; activity change, positive = activation: at 10.9 µM (top of the series) unless noted;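 on activity change, positive = activation: 0% = negative control wells on the plate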
In short: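 Gelatin-coated wells received 300 freshly trypsinized female ES cells with a Peg3LacZ-Neo reporter on the maternal allele, then incubated 40 hours at 37C. BetaGlo was added for 5 minutes at room temperature before a single luminescence read.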
Potency means the concentration at half of the fitted maximal effect; tags describe the fitted curve by direction and shape.

SMILES | activity change, positive = activation | Potency
CCOC(=O)N1CCN(CCC(=O)Nc2cc(C)ccc2C)CC1 | inconclusive: 31.4% [activator] | –
O=C(c1ccco1)N1CCC(n2nnc3ccccc32)CC1 | – | inconclusive [activator, single point]
COc1ccc(-c2nc3cnc(N(C)C)nc3n(C3CC3)c2=O)cc1 | – | inactive
c1ccc(Cn2ncc3c(N4CCCCC4)ncnc32)cc1 | – | inactive
COc1ccc(-n2c(=O)c(-c3ccc(F)cc3)nc3cnc(N4CCNCC4)nc32)cc1 | – | inconclusive [activator, single point]
O=C(CSc1nc2c([nH]c3ccccc32)c(=O)n1-c1ccccc1F)Nc1ccccc1C(F)(F)F | inconclusive: 41.6% [activator] | –
Cc1cc(C)cc(NC(=O)CCS(=O)(=O)c2ccc3nc(C)sc3c2)c1 | inconclusive: 35.3% [activator] | –
COC(=O)Cc1c(C)c2ccc3c(c2oc1=O)CN(Cc1ccccc1OC)CO3 | inconclusive: 32.8% [activator] | –
CCOCCCn1c(=N)c(C(=O)NCc2ccc3c(c2)OCO3)cc2c(=O)n3ccccc3nc21 | – | inactive
CCCC(=O)NCC(c1ccc2c(c1)OCO2)N1CCN(c2ccccc2)CC1 (stereo not given) | inconclusive: 77.3% [activator] | –
Cc1ccccc1-c1cncnc1NC1CCNCC1 | – | inconclusive [activator, single point]
Cn1cc(S(=O)(=O)N2CCCCCC2)cc1C(=O)NCc1ccccc1Cl | – | inactive
COC(=O)c1ccccc1NC(=O)CCC(=O)N1CCOc2ccccc21 | – | inactive
COc1cc(OC)cc(C(=O)OCn2nnc3ccccc3c2=O)c1 | – | inactive
c1ccc(-n2nnnc2SCc2cn3cccnc3n2)cc1 | – | inconclusive [activator, single point]
COC(=O)CSc1nc(-c2ccc(F)cc2)cc(C(F)(F)F)n1 | inconclusive: 35.2% [activator] | –
CS[C@@H](CC(=O)O)C(=O)O | – | inactive
COC(=O)c1cccc(Nc2c(-c3ccc(SC)cc3)nc3nc[nH]n23)c1 | – | inactive
COc1cccc(Oc2cn[nH]c2-c2ccc(O)cc2O)c1 | – | inactive
Cc1cn([C@@H]2C[C@H](N=[N+]=N)[C@H](CO)O2)c(=O)[nH]c1=O | – | inconclusive [activator, partial curve, poor fit]
COc1ccc(NC(=O)c2cnc(N3CCOCC3)c3ccccc23)cc1OC | inconclusive: 53.4% [activator] | –
COc1ccc(CCNC(=O)C(=O)NCC(c2ccco2)S(=O)(=O)c2cccs2)cc1 (stereo not given) | inconclusive: 37.6% [activator] | –
CC1=C(C(=O)Nc2ccccc2)C(c2cccc(O)c2)n2nc(-c3ccccc3Cl)nc2N1 (stereo not given) | inconclusive: 36.2% [activator] | –
CCN(CC)CCCNC(=O)CCCn1c(=O)[nH]c2ccc(Br)cc2c1=O | – | inactive
CC(C)CC(=O)NCC(c1ccc2c(c1)OCO2)N1CCN(c2ccccc2F)CC1 (stereo not given) | inconclusive: 62.9% [activator] | –

SMILES | activity change, positive = activation | Potency
CCCCN(C)CC(O)Cn1cc(/C=C/C(=O)c2ccc(OC)c(OC)c2)c2ccccc21 (stereo not given) | inconclusive: 74.4% [activator] | –
CCN1CCN(C(=O)c2ccc3c(c2)N(Cc2ccccc2)C(=O)c2ccccc2S3=O)CC1 (stereo not given) | inconclusive: 33.9% [activator] | –
Cn1nnnc1SCCNCc1ccccc1OCc1ccc(Cl)cc1Cl | – | inactive
CCCOc1ccc(Nc2cc(C)nc(C)n2)cc1 | inconclusive: 37.1% [activator] | –
CN(C)C(=O)c1ccc(-c2ccc3ncnc(Nc4ccccc4)c3c2)cc1 | – | inactive
COc1cc(C(=O)NCC(=O)OCC(=O)c2ccc[nH]2)cc(OC)c1OC | – | inconclusive [activator, single point]
COc1ccc(CNC(=O)Nc2ccc(OC)cc2)cc1 | – | inactive
Cc1cccc(CNc2ncncc2-c2ccccc2C)c1 | – | inconclusive [activator, single point]
COc1cc(C2CC(=O)c3c([nH]c(C(=O)OCc4ccc(C)cc4)c3C)C2)cc(OC)c1OC (stereo not given) | – | inactive
NC[C@@H]1O[C@@H](O[C@H]2[C@H](O)[C@@H](O[C@@H]3O[C@@H](CO)[C@H](O)[C@@H](N)[C@@H]3O)[C@H](N)C[C@@H]2N)[C@@H](O)[C@H](O)[C@H]1O | – | inactive
CCNc1ncc2nc(-c3cn(C)c4ccccc34)c(=O)n(C[C@H]3CCCO3)c2n1 | – | inconclusive [activator, single point]
Cc1cccc(N(CC(N)=O)C2SC(=O)N(c3ccccc3)C2=O)c1 (stereo not given) | – | inactive
N#Cc1ccccc1-c1ccc2ncnc(N3CCNCC3)c2c1 | – | inconclusive [activator, partial curve]
CCOC(=O)c1ccccc1NC(=O)Cn1c(=O)n(CCC(=O)NCc2ccccc2OC)c(=O)c2ccccc21 | inconclusive: 31.8% [activator] | –
CCOC(=O)c1ccc(NC(=O)CN2C(=O)c3cccnc3Sc3ccccc32)cc1 | – | inactive
O=C(Nc1nc2c(Cl)cccc2s1)c1ccc(Br)o1 | – | inactive
COc1cc(OC)c(N(C)C(=O)CSc2c3c(nc4ccc(Cl)cc24)CCCC3)cc1Cl | inconclusive: 43.4% [activator] | –
COc1ccc(CCNC(=O)CCn2c(=O)c3ccccc3n(CC(=O)Nc3cc(Cl)ccc3C)c2=O)cc1OC | inconclusive: 31.8% [activator] | –
CCOc1ccc(Br)cc1/C=N/O | – | inactive
CCN1C(=O)c2ccccc2Sc2ccc(NC(=O)c3cccc(C)c3)cc21 | inconclusive: 44.5% [activator] | –
Cn1cc(S(=O)(=O)N2CCCCCC2)cc1C(=O)N1CCN(c2ccccc2F)CC1 | – | inactive
O=C(CCc1ccccc1)NCc1ccc2c(c1)CCN2C(=O)c1ccccc1 | inconclusive: 32.9% [activator] | –
C=CCNC(=O)c1ccccc1NC(=O)c1ccccc1 | – | inconclusive [activator, single point]
CCOC(=O)C1CCCN(CC(=O)NC2CC2)C1 (stereo not given) | – | inactive
O=C(Nc1ccc(Oc2ccccc2)cc1)c1ccc(F)c(S(=O)(=O)N2CCN(c3ccccc3F)CC2)c1 | – | inactive

SMILES | activity change, positive = activation | Potency
CCOc1cc(-c2ccc3c(c2)OCO3)cc(=O)c2c(C)oc(C)c12 | – | inconclusive [activator, single point]
N=C(C[C@@H](O)COc1ccccc1-c1ccccc1)N1CCCCC1 | – | inactive
COc1ccccc1CCNC(=O)C(=O)NCC(c1cccnc1)N1CCN(c2ccccc2)CC1 (stereo not given) | – | inactive
CCCCCc1cc(O)c2c(C)cc(=O)oc2c1 | – | inactive
COc1ccc(-c2noc(-c3cccnc3N3CCN(c4ccc(OC)cc4)CC3)n2)cc1 | inconclusive: 41.9% [activator] | –
CCCCN(CC)C(=O)CSc1c2c(nc3ccc(Cl)cc13)CCCC2 | inconclusive: 35.5% [activator] | –
Cc1cc(C)nc(NC2=NCC(=O)N2c2cc(Cl)cc(Cl)c2)n1 | – | inconclusive [activator, single point]
CCc1ccccc1Nc1nn2c(=O)c3ccc(C(=O)NCCCOC(C)C)cc3nc2s1 | inconclusive: 30.8% [activator] | –
COc1ccc(-n2nc(C(=O)NCC(=O)NCC3CCCO3)c3ccccc3c2=O)cc1 (stereo not given) | – | inconclusive [activator, single point]
CCn1c(CN2CCC(C)CC2)nc2cc(NC(=O)COc3ccc(Cl)c(C)c3)ccc21 | – | inactive
COc1cc(S(=O)(=O)n2nnc3ccccc32)c(OC)cc1Cl | – | inconclusive [activator, single point]
CCOC(=O)c1cnn(-c2ccc(C(=O)Nc3cccc(C(C)=O)c3)cc2)c1N | – | inactive
Cc1ccc(CNC(=O)CCn2cnc3ccccc3c2=O)cc1 | inconclusive: 35.9% [activator] | –
Cc1ccc(-c2nnn(CC(=O)N(CC(=O)NC(C)C)c3cnc4ccccc4c3)n2)o1 | – | inconclusive [activator, single point]
O=C1C2CCCN2C(c2ccc(Cl)cc2)N1c1nccs1 (stereo not given) | – | inconclusive [activator, single point]
COc1cccc(NC(=O)CSc2nccn2C2CCCC2)c1 | inconclusive: 35.4% [activator] | –
CC(=O)N1[C@H](Cc2ccccc2)C=C[C@]1(C)C(=O)NCc1cc(F)cc(C(F)(F)F)c1 | – | inactive
Cc1cc(C)c2c(=O)cc(C(=O)Nc3c(C)n(C)n(-c4ccccc4)c3=O)oc2c1 | inconclusive: 58.7% [activator] | –
COC(=O)[C@@]1(Cc2ccc(F)cc2)[C@H]2c3cc(C(=O)N(C)C)n(Cc4ccsc4Br)c3C[C@H]2CN1C(=O)c1ccccc1 | – | inactive
O=C(CSc1nnnn1C1CCCC1)c1ccc2c(c1)OCCO2 | – | inactive
COc1ccc(S(=O)(=O)c2c(O)c3ccc(C(=O)NCc4ccc(Cl)cc4)cc3[nH]c2=O)cc1 | inconclusive: 37.6% [activator] | –
Cc1ccc(OCC(=O)Nc2cccc(OCc3cc(=O)n4cccc(C)c4n3)c2)cc1C | inconclusive: 36.8% [activator] | –
CCN1C(=O)c2ccccc2S(=O)(=O)c2ccc(C(=O)NCc3ccccc3)cc21 | inconclusive: 30.5% [activator] | –
COc1ccc(N2CCN(C(CNS(=O)(=O)c3ccc(OC)c(C)c3)c3ccco3)CC2)cc1 (stereo not given) | inconclusive: 39.9% [activator] | –
O=C(O)CN(CC(=O)O)Cc1cc2c(-c3ccccc3C(=O)O)c3cc(CN(CC(=O)O)CC(=O)O)c(=O)cc-3oc2cc1O | – | inconclusive [activator, single point]
